Measurements as given in the supplement of paper PMC4604168 (melanoma cell lines).
This is one part of the list. Many values rest on one well or one pass, so single values are uncertain.

Key:
Assay in all cases: cell count relative to DMSO control; melanoma cells; higher = more viable cells
Details in all cases: library dose: standard library concentration; 72 h
[1] = tested on: G361
[2] = tested on: IPC-298
[3] = tested on: IST-MEL1
[4] = tested on: LB2518-MEL
[5] = tested on: LOXIMVI
[6] = tested on: MEL-HO
[7] = tested on: MZ2-MEL
[8] = tested on: MeWo
[9] = tested on: RPMI7951
[10] = tested on: RVH-421
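Also: cells treated in 1,536-well plates, then fixed and DAPI-stained, with nuclei counted from automated high-throughput microscope images.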

SMILES | cell count [1] [%] | cell count [2] [%] | cell count [3] [%] | cell count [4] [%] | cell count [5] [%] | cell count [6] [%] | cell count [7] [%] | cell count [8] [%] | cell count [9] [%] | cell count [10] [%]
CCCS(=O)(=O)Nc1ccc(F)c(C(=O)c2c[nH]c3ncc(Cl)cc23)c1F + C[C@]1(c2nc3c(C(N)=O)cccc3[nH]2)CCCN1 [Veliparib] (first compound 0.4 µM, partner dose 7 µM) | 56.5 | 74.1 | 90.7 | 85.8 | 67.4 | 78.6 | 71 | 96.3 | 98.2 | 78.2
CN(c1ncccc1CNc1nc(Nc2ccc3c(c2)CC(=O)N3)ncc1C(F)(F)F)S(C)(=O)=O + O=C(CCCCCCC(=O)Nc1ccccc1)NO [vorinostat] (first compound 0.4 µM, partner dose 0.4 µM) | 59.8 | 82.2 | 84.2 | 78.7 | 63.2 | 83 | 101 | 86.1 | 67.5 | 86.5
CN(c1ncccc1CNc1nc(Nc2ccc3c(c2)CC(=O)N3)ncc1C(F)(F)F)S(C)(=O)=O + N#Cc1c(O)c2c(-c3ccc(-c4ccccc4O)cc3)csc2[nH]c1=O [A769662] (first compound 0.4 µM, partner dose 10 µM) | 131 | 110 | 90.9 | 92.4 | 105 | 108 | 106 | 101 | 96 | 132
CS(=O)(=O)c1ccc(C(=O)Nc2ccc(Cl)c(-c3ccccn3)c2)c(Cl)c1 [vismodegib] + Cc1cc([N+](=O)[O-])ccc1NS(=O)(=O)c1cc(Cl)ccc1Cl [FH535] (first compound 5 µM, partner dose 5 µM) | 56.3 | 46.6 | 51.9 | 71.1 | 66.8 | 55.7 | 78.7 | 73.8 | 80.9 | 64.5
CN(c1ncccc1CNc1nc(Nc2ccc3c(c2)CC(=O)N3)ncc1C(F)(F)F)S(C)(=O)=O + NCC(=O)Nc1ccc(-n2nc(C(F)(F)F)cc2-c2ccc3c(ccc4ccccc43)c2)cc1 [OSU03012] (first compound 0.4 µM, partner dose 5 µM) | 64.6 | 59.9 | 53.6 | 71.3 | 61.3 | 79.8 | 65.6 | 105 | 55.7 | 92.2
CCCS(=O)(=O)Nc1ccc(F)c(C(=O)c2c[nH]c3ncc(Cl)cc23)c1F + N#Cc1c(O)c2c(-c3ccc(-c4ccccc4O)cc3)csc2[nH]c1=O [A769662] (first compound 0.4 µM, partner dose 10 µM) | 81.4 | 86.9 | 80.9 | 94 | 121 | 80.8 | 84.5 | 106 | 113 | 68.9
CN(c1ncccc1CNc1nc(Nc2ccc3c(c2)CC(=O)N3)ncc1C(F)(F)F)S(C)(=O)=O + CC(C)C[C@H](NC(=O)[C@H](Cc1ccccc1)NC(=O)c1cnccn1)B(O)O [Bortezomib] (first compound 0.4 µM, partner dose 0.005 µM) | 1.63 | 5.92 | 6.84 | 1.37 | 13.7 | 27.5 | 4.64 | 13.7 | 3.87 | 3.88
NC1(c2ccc(-c3nc4ccn5c(=O)[nH]nc5c4cc3-c3ccccc3)cc2)CCC1 + CC(C)CCN1c2nc(Nc3cc(F)c(O)c(F)c3)ncc2N(C)C(=O)C1C [BID1870] (first compound 2 µM, partner dose 1 µM) | 58.6 | 71.4 | 79.3 | 105 | 53.8 | 55.3 | 92.1 | 66.7 | 89.3 | 75
C=C(c1ccc(C(=O)O)cc1)c1cc2c(cc1C)C(C)(C)CCC2(C)C [Bexarotene] + CCCCCCCCCCCC1=C(O)C(=O)C=C(O)C1=O [Embelin] (first compound 10 µM, partner dose 6 µM) | 62.1 | 66 | 54.8 | 109 | 93.2 | 74.2 | 94.2 | 92.9 | 65.4 | 90.5
NC1(c2ccc(-c3nc4ccn5c(=O)[nH]nc5c4cc3-c3ccccc3)cc2)CCC1 + CC1(C)NC(=O)N(c2ccc([N+](=O)[O-])c(C(F)(F)F)c2)C1=O [nilutamide] (first compound 2 µM, partner dose 5 µM) | 86.9 | 104 | 67.5 | 72 | 80.1 | 79.7 | 121 | 78.9 | 87.7 | 67.5
CN(c1ncccc1CNc1nc(Nc2ccc3c(c2)CC(=O)N3)ncc1C(F)(F)F)S(C)(=O)=O + C[C@]1(c2nc3c(C(N)=O)cccc3[nH]2)CCCN1 [Veliparib] (first compound 0.4 µM, partner dose 7 µM) | 89.3 | 86.7 | 91.1 | 66.6 | 68.1 | 84.5 | 70.5 | 90.6 | 67.7 | 81.4
CCCS(=O)(=O)Nc1ccc(F)c(C(=O)c2c[nH]c3ncc(Cl)cc23)c1F + Clc1ccc(Nc2nnc(Cc3ccncc3)c3ccccc23)cc1 [vatalanib] (first compound 0.4 µM, partner dose 10 µM) | 79.7 | 56.4 | 71.5 | 80.5 | 88.4 | 58.3 | 65.3 | 67.1 | 59.5 | 45.8
C=C(c1ccc(C(=O)O)cc1)c1cc2c(cc1C)C(C)(C)CCC2(C)C [Bexarotene] + CN(C)S(=O)(=O)c1ccc2c(c1)/C(=C/c1cc3c([nH]1)CCCC3)C(=O)N2 [SU6656] (first compound 10 µM, partner dose 2 µM) | 66.6 | 89.8 | 92.5 | 82.4 | 132 | 87.9 | 121 | 89.3 | 58.4 | 90.1
CCCS(=O)(=O)Nc1ccc(F)c(C(=O)c2c[nH]c3ncc(Cl)cc23)c1F + Nc1cccc2c1CN(C1CCC(=O)NC1=O)C2=O [lenalidomide] (first compound 0.4 µM, partner dose 5 µM) | 78.2 | 81.4 | 98.6 | 132 | 98.3 | 102 | 87.2 | 98.5 | 75.1 | 119
CCCS(=O)(=O)Nc1ccc(F)c(C(=O)c2c[nH]c3ncc(Cl)cc23)c1F + CC(C)(C)c1cnc(CSc2cnc(NC(=O)C3CCNCC3)s2)o1 [SNS-032] (first compound 0.4 µM, partner dose 0.05 µM) | 62.7 | 67.5 | 65.7 | 65.1 | 68.7 | 82.7 | 60.5 | 84.1 | 34.6 | 64.8
C=C(c1ccc(C(=O)O)cc1)c1cc2c(cc1C)C(C)(C)CCC2(C)C [Bexarotene] + C[C@]1(c2nc3c(C(N)=O)cccc3[nH]2)CCCN1 [Veliparib] (first compound 10 µM, partner dose 7 µM) | 67.2 | 78.9 | 100 | 88.4 | 94.9 | 82.8 | 88.1 | 79 | 82.9 | 90.9
CN(c1ncccc1CNc1nc(Nc2ccc3c(c2)CC(=O)N3)ncc1C(F)(F)F)S(C)(=O)=O + Oc1cc(-c2nc(-c3ccccc3)[nH]c2-c2ccncc2)ccc1Cl [L779450] (first compound 0.4 µM, partner dose 1 µM) | 41.4 | 69.7 | 77.5 | 83.5 | 92.1 | 80.2 | 72.9 | 83.8 | 56.1 | 78.6
CN(c1ncccc1CNc1nc(Nc2ccc3c(c2)CC(=O)N3)ncc1C(F)(F)F)S(C)(=O)=O + c1cc(-c2cnn3cc(-c4ccc(OCCN5CCCCC5)cc4)cnc23)ccn1 [Dorsomorphin] (first compound 0.4 µM, partner dose 2 µM) | 65.1 | 76.3 | 82.1 | 54.9 | 43.2 | 70.7 | 46 | 62.8 | 43.2 | 148
CN(c1ncccc1CNc1nc(Nc2ccc3c(c2)CC(=O)N3)ncc1C(F)(F)F)S(C)(=O)=O + Nc1cccc2c1CN(C1CCC(=O)NC1=O)C2=O [lenalidomide] (first compound 0.4 µM, partner dose 5 µM) | 67.7 | 75.1 | 93.7 | 88 | 72.2 | 79 | 71 | 85.8 | 56.4 | 75.2
C=C(c1ccc(C(=O)O)cc1)c1cc2c(cc1C)C(C)(C)CCC2(C)C [Bexarotene] + O=C(O)c1ccc(-c2c[nH]c3ncc(-c4ccccc4)cc23)cc1C1CCCC1 [GSK650394] (first compound 10 µM, partner dose 0.8 µM) | 49.1 | 101 | 64.2 | 84.7 | 95.3 | 76.4 | 91.9 | 77.4 | 62.5 | 81.4
C=C(c1ccc(C(=O)O)cc1)c1cc2c(cc1C)C(C)(C)CCC2(C)C [Bexarotene] + Cc1cc([N+](=O)[O-])ccc1NS(=O)(=O)c1cc(Cl)ccc1Cl [FH535] (first compound 10 µM, partner dose 5 µM) | 42.7 | 51.1 | 72.2 | 82.4 | 57.2 | 50.8 | 70.4 | 82.1 | 85.1 | 70.7
CS(=O)(=O)c1ccc(C(=O)Nc2ccc(Cl)c(-c3ccccn3)c2)c(Cl)c1 [vismodegib] + CNC(=O)c1cc(Oc2ccc(NC(=O)Nc3ccc(Cl)c(C(F)(F)F)c3)cc2)ccn1 [sorafenib] (first compound 5 µM, partner dose 2 µM) | 97.7 | 85.8 | 108 | 90.6 | 114 | 95.4 | 120 | 106 | 91.6 | 144
